# Measured values reported in publication PMC9911399, “Two distinct binding modes provide the RNA-binding protein RbFox with extraordinary sequence specificity”.
# Where a chain is given by its changes, count along the chain named. This is one part of the list.
# T1: RBFOX1 RRM RbFoxmut (Fox-RRM*) (Homo sapiens, UniProt Q9NWB1 109-208, R118D;E147R;N151S;E152T)
# T1 sequence: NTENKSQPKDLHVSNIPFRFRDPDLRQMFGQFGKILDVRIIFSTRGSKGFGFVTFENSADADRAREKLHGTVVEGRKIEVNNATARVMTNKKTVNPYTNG
# B1: GAAUGAA (DNA:RNA)
# RNA: GGGAGACCGGAAUUCAGAUUGUCCGAAUGAAUUAAAUCCCGUCGUAGCCACCA
# DNA 1: CAATCTGAATTCCGGTCTCCC
# DNA 2: TGGTGGCTACGACGGGATT
# B2: CCAAGCC (DNA:RNA)
# RNA: B1 RNA with G25C, A26C, U28A, A30C, A31C
# DNA 1: CAATCTGAATTCCGGTCTCCC
# DNA 2: TGGTGGCTACGACGGGATT
# B3: UAAGGAU (DNA:RNA)
# RNA: B1 RNA with G25U, U28G, A31U
# DNA 1: CAATCTGAATTCCGGTCTCCC
# DNA 2: TGGTGGCTACGACGGGATT
# B4: AAUUAAC (DNA:RNA)
# RNA: B1 RNA with G25A, A27U, G29A, A31C
# DNA 1: CAATCTGAATTCCGGTCTCCC
# DNA 2: TGGTGGCTACGACGGGATT
# B5: GGCUAAA (DNA:RNA)
# RNA: B1 RNA with A26G, A27C, G29A
# DNA 1: CAATCTGAATTCCGGTCTCCC
# DNA 2: TGGTGGCTACGACGGGATT
# B6: AUUUAUC (DNA:RNA)
# RNA: B1 RNA with G25A, A26U, A27U, G29A, A30U, A31C
# DNA 1: CAATCTGAATTCCGGTCTCCC
# DNA 2: TGGTGGCTACGACGGGATT
# B7: CGGUGUU (DNA:RNA)
# RNA: B1 RNA with G25C, A26G, A27G, A30U, A31U
# DNA 1: CAATCTGAATTCCGGTCTCCC
# DNA 2: TGGTGGCTACGACGGGATT
# B8: UGUUCAG (DNA:RNA)
# RNA: B1 RNA with G25U, A26G, A27U, G29C, A31G
# DNA 1: CAATCTGAATTCCGGTCTCCC
# DNA 2: TGGTGGCTACGACGGGATT
# B9: CGCAGCC (DNA:RNA)
# RNA: B1 RNA with G25C, A26G, A27C, U28A, A30C, A31C
# DNA 1: CAATCTGAATTCCGGTCTCCC
# DNA 2: TGGTGGCTACGACGGGATT
# Target: T1, RBFOX1 RRM RbFoxmut (Fox-RRM*)
# Assay: EMSA; HiTS-Eq, 1 nM pool, 10 min; buffer printed only for the single-RNA assays: 10 mM Tris pH 7.5, 150 mM NaCl, 3.4 mM EDTA, 0.001% NP-40, 30 C
# Details: tags: His6 N-terminal (pET28a); label: 5' 32P
# Method in brief: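 Purified wild-type or mutant RbFox RRM at increasing concentrations was equilibrated with 1 nM of 5′-radiolabelled RNA carrying 7 randomized nucleotides for 10 min in 50 µL. Unbound RNA was separated by 8% native PAGE and sequenced. Relative association constants came from read-count changes of each RNA species compared with the control reaction, normalised to the cognate motif.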
row,Binder,binding signal
1,B1,0.873 KA relative to UGCAUGU
2,B2,0.109 KA relative to UGCAUGU
3,B3,0.0822 KA relative to UGCAUGU
4,B4,0.103 KA relative to UGCAUGU
5,B5,0.0819 KA relative to UGCAUGU
6,B6,0.111 KA relative to UGCAUGU
7,B7,0.11 KA relative to UGCAUGU
8,B8,0.0989 KA relative to UGCAUGU
9,B9,0.106 KA relative to UGCAUGU
